Out of some 310,000 compounds screened, about 14,000 (4.5%) showed an effect of 50% or more. The effect is printed as a negative number. Some of the results follow.
These molecules were tested against human ether-à-go-go-related gene (hERG) potassium channel (human, UniProt Q12809) (assay: primary screen, population patch clamp on CHO cells stably expressing hERG).
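Note: peak tail current of the secondary pulse compared with the same well before compound.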

Chain of human ether-à-go-go-related gene (hERG) potassium channel (Q12809 whole entry, looked up): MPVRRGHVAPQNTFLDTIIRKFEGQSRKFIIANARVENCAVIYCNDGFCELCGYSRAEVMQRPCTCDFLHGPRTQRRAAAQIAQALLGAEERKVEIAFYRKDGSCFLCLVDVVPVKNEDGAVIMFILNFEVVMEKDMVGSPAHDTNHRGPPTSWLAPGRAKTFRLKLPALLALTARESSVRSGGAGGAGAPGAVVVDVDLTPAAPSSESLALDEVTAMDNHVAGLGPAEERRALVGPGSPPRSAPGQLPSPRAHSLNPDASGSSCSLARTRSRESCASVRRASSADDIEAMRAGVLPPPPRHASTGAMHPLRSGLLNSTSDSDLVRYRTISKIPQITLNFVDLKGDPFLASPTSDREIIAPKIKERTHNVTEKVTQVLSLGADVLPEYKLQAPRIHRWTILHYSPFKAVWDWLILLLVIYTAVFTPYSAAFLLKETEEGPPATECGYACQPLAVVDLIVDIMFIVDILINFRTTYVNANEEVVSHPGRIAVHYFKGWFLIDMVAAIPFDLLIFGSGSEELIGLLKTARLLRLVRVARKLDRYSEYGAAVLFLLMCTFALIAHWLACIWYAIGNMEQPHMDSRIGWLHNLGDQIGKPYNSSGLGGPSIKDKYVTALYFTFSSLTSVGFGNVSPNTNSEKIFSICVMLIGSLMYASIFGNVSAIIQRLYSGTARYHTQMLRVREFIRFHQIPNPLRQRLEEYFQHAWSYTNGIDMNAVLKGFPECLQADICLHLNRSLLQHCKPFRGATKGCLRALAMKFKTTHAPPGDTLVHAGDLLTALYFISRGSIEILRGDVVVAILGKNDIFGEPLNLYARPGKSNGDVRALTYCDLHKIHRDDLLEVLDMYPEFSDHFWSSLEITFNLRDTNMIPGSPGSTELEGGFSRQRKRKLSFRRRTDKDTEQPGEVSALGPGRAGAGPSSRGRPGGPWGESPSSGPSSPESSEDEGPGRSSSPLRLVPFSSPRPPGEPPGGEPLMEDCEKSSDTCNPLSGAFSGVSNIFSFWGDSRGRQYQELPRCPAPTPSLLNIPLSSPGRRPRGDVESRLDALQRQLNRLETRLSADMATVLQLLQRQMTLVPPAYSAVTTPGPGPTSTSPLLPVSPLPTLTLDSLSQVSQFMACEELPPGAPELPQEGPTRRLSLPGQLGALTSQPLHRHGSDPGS

Structure (SMILES) | hERG current change (%, negative = inhibition) at 10uM
Cc1cccc(NC(=S)NC(=O)c2ccco2)c1C | 0.486%
CC(C)NC(=O)c1sc2nc3c(c(-c4cccs4)c2c1N)CN(C)CC3 | -25.8%
O=C(N/N=C/C1C(=O)NC(=S)N(c2ccccc2)C1=O)c1cc(Br)c(O)c(Br)c1 (stereo not shown) | 11.1%
COc1ccccc1C(O)(C(=O)NN(C)c1ccccc1)c1ccccc1OC | 9.03%
COC(=O)c1[nH]c2cccc(OC)c2c1NC(=O)CN1CC2(C)CC1CC(C)(C)C2 (stereo not shown) | 9.92%
CN1C(=O)c2ccccc2NC(=O)[C@]12O[C@@H]2c1ccccc1 | 2.2%
Cn1nnc2cc(C(=O)Nc3ccccc3F)ccc21 | 13.6%
COc1cccc(-n2c(C)cc(/C=C3/C(=N)N4C(=NC3=O)SN=C4S(C)(=O)=O)c2C)c1 | 11%
CC(C)NC(=O)NC(=O)COC(=O)c1ccc(S(=O)(=O)Nc2ccccc2)cc1 | -4.82%
CCOc1cc(C(=S)N2CCCC2)ccc1OC | 16.6%
O=C(NC1CCCCCC1)c1ccc2c(=O)n3c(nc2c1)CCCCC3 | -51%
CCCN1CCc2nc(SCC(=O)Nc3ccc(C)c(Cl)c3)[nH]c(=O)c2C1 | -0.316%
CSc1ccccc1C(=O)NC1CCCN(Cc2ccccc2F)C1 (stereo not shown) | -11.5%
COCCSc1ccccc1C(=O)Nc1cc(C)on1 | -5.92%
COc1ccccc1-c1n[nH]c(=S)n1N | 16.3%
O=C(O)CCC(=O)N1CCc2cc(S(=O)(=O)N3CCN(c4ccc(F)cc4)CC3)ccc21 | 12.5%
O=S(=O)(N/N=C/c1ccc(Cl)cc1)c1ccc(Cc2ncc(C(F)(F)F)cc2Cl)s1 | 15.4%
CC[n+]1ccc(/C=C2\Sc3ccccc3N2CCCS(=O)(=O)[O-])c2ccccc21 | 21.2%
CCCCNC(=O)CCCCCNS(=O)(=O)c1ccc(Br)cc1 | -49.6%
CCOC(=O)N1CCC(Nc2cccc(SC)c2)CC1 | 4.75%
C/C(=N\Nc1cc(Cl)nc(C)n1)c1ccc(C)cc1 | 9.02%
O=C(CN(C(=O)CNS(=O)(=O)c1ccccc1)c1ccc2c(c1)OCCO2)NC1CCCCC1 | -10.2%

Structure (SMILES) | hERG current change (%, negative = inhibition) at 10uM
CCCCn1c(N)c(N(CCC(C)C)C(=O)COC(=O)c2ccccc2)c(=O)[nH]c1=O | 3.79%
O=C(CSc1ncnc2sccc12)Nc1ccccc1 | 21.2%
Cc1cccnc1NC(=O)c1ccc2nc(N)sc2c1 | 6.12%
C=CCN1C(=O)c2ccccc2Sc2ccc(C(=O)NC(C)C)cc21 | 7.49%
CCOC(=O)C[C@H]1c2cc(F)ccc2S(=O)(=O)N1C1CCCC1 | -5.43%
O=C(NCc1ccccn1)C1CCCCC1 | 13.9%
CN(c1ccc(C(=O)N2CCN(c3ccc(F)cc3)CC2)cc1)S(C)(=O)=O | -25.4%
CC12CN3CCN(CC(C3)C1O)C2 (stereo not shown) | 6.44%
CCCCn1c(=O)n(CC(=O)Nc2c(CC)cccc2CC)c(=O)c2c1nc(CO)n2CCC | -4.92%
COc1ccc(C(=O)c2ccc(OC)c(Br)c2)cc1Br | 7.73%
COc1cccc(C2C(C#N)=C(N)Oc3cc(N)ccc32)c1OC (stereo not shown) | -6.99%
CCOC(=O)c1sc(NC(=O)CSc2nnc(C(C)C)n2CC)nc1C | -10%
COc1cc(C2SCC(=O)N2CCN2CCCCC2)ccc1O.Cl (stereo not shown) | 30.1%
Cc1ccc(OCC(=O)N(Cc2ccco2)C2CCS(=O)(=O)C2)cc1 (stereo not shown) | -13%
c1ccc2[nH]c(CCNC3CCCCC3)nc2c1 | -14.8%
NC(=O)CC(NC(=O)Cc1cccc2ccccc12)c1ccc(NCCc2ccc(F)cc2)c([N+](=O)[O-])c1 (stereo not shown) | 4.1%
COc1ccc(Cl)cc1NC(=O)NC(C)c1ccncc1 (stereo not shown) | -14.7%
O=C(NNC(=S)NC(=O)c1ccccc1)c1cccc([N+](=O)[O-])c1 | 22.8%
NC(=O)CSc1nnc(-c2ccco2)n1-c1ccccc1 | 16.1%
Cc1cccc2cc(CN(CC(C)C)S(=O)(=O)c3ccccc3)c(=O)[nH]c12 | 16.5%
Cc1ccc2cc(CN(CC3CCCO3)S(=O)(=O)c3ccc4c(c3)OCCO4)c(=O)[nH]c2c1C (stereo not shown) | 6.95%
Cc1ccc(SCC(=O)Nc2ccccc2C(=O)O)cc1 | -0.936%

Structure (SMILES) | hERG current change (%, negative = inhibition) at 10uM
Cc1cc(C)c(NC(=O)c2cccc3c2C(=O)N(C2CCCCC2)C3)c(C)c1 | -11%
O=C(CSc1nnc(SCc2ccccc2)s1)N/N=C/c1c(Cl)cccc1Cl | 2.38%
C=C(C)CC(NCc1ccco1)c1ccc(OC)cc1 (stereo not shown) | -3.88%
O=C(c1ccccc1)c1ccccc1C(=O)N1CCOCC1 | 16.7%
Cc1ccccc1-c1nc(CSc2nc3c(c(=O)[nH]2)CCC3)c(C)o1 | 17.3%
CCN(CC)C(=O)CSc1nc2ccsc2c(=O)n1CCCC(=O)NCCc1ccc(S(N)(=O)=O)cc1 | 24.7%
Br.C=CCN1C(c2ccc(Br)cc2)=CS/C1=C(/C#N)c1nnc(N2CCOCC2)n1-c1ccccc1 | -13.4%
CCCC(=O)N1CCN(c2ccc(NC(=O)c3ccc(OCC)c([N+](=O)[O-])c3)cc2)CC1 | 7.88%
Cc1cc(=O)[nH]c(N/N=C/c2ccc(OC(=O)c3cccnc3)cc2)n1 | 2.07%
CSC(=NC#N)N1CCN(c2ccccn2)CC1 | -5.37%
CC1Cc2ccccc2N1C(=O)Cn1nc(C(=O)O)c2ccccc2c1=O (stereo not shown) | -28.9%
COC(=O)c1cc2n(n1)CCN(Cc1ccccc1F)C2=O | 8.43%
O=C1CC(=O)N(c2ccc(Cl)cc2)C(=O)N1 | 25.3%
CC(=O)Nc1nc2cccc([N+](=O)[O-])c2s1 | 16.1%
COc1ccc(Cl)cc1NC(=S)N1CCN(S(C)(=O)=O)CC1 | -9.89%
O=C(COC(=O)C1=Cc2ccccc2OC1)NCc1ccccc1 | 2.43%
Cc1ccccc1NC(=O)C1CCC(=O)N1 (stereo not shown) | -0.504%
COc1ccc(C2(C(=O)Nc3ccc(C)cc3)CCOCC2)cc1 | 11.3%
COc1ccc(S(=O)(=O)N2CCC(C(=O)NCCCN3CCOCC3)CC2)cc1 | 1.37%
CC(C)CN(C(=O)c1cccc(S(=O)(=O)N2CCN(c3ccc(F)cc3)CC2)c1)C1CCS(=O)(=O)C1 (stereo not shown) | -16%
Cc1ccc(Sc2cc(Cl)nc(N)n2)cc1 | 17.8%
OCC[C@H]1C[C@H](O)[C@@H](O)[C@@]2(CCCCO2)O1 | 17.5%

Structure (SMILES) | hERG current change (%, negative = inhibition) at 10uM
O=C(Nc1cccc(-c2nc3ncccc3o2)c1)c1ccccc1 | -9.36%
COc1ccc(N2CCN(S(=O)(=O)c3ccc(OC)c(C(=O)N4CCCC4)c3)CC2)cc1 | -3.54%
O=C(CSc1ccccn1)Nc1ccc2ccccc2c1 | -10.1%
CCCN1CCCc2cc(CN(CCCN3CCOCC3)C(=O)Nc3ccc(OCC)cc3)ccc21 | -34.2%
COc1cccc(NC(=O)C(Sc2nc3ccccc3c(=O)n2CC(C)C)c2ccccc2)c1 (stereo not shown) | 11.8%
O=C(Cn1nc(Cc2cccnc2)c2ccccc2c1=O)Nc1ccccc1F | -19.6%
COC(=O)CNC(=O)c1cc(OC)cc(OC)c1 | 9.58%
COc1ccc(N(C(=O)c2ccccc2)S(=O)(=O)c2cccs2)cc1 | 21.6%
CSCC[C@H](NC(=O)OCc1ccccc1)C(=O)O | -2.24%
O=C(NCCc1ccccc1)c1c[nH]c2c(F)cccc2c1=O | 17%
CCCn1c(N)c(N(CCOC)C(=O)c2cc3c(s2)CCCCC3)c(=O)[nH]c1=O | 14.4%
O=S(=O)(c1cccnc1)N1CCn2cccc2C1c1ccccc1F (stereo not shown) | -5.05%
COc1ccc(N=Nc2nc3cc(Br)c(Br)cc3n2C)c(OC)c1 | -2.96%
CCN(CC)S(=O)(=O)c1cccc(NC(=O)COC(=O)c2cc(=O)c3ccccc3o2)c1 | 0.684%
Cc1cccc(C)c1NC(=O)CNC(=O)c1ccc(COc2ccccc2)cc1 | 18.2%
C/C(=N/NC(=O)c1ccc(Br)o1)c1cccc(NC(=O)c2ccc(C)o2)c1 | -67.6%
Cc1ccc(SCc2c(C(=O)N/N=C/c3ccncc3)nnn2-c2nonc2N)cc1 | 6.88%
Cc1cc(C)n(-c2ccc(C(=O)Nc3cc(C(F)(F)F)ccc3N3CCOCC3)cc2)n1 | -0.946%
COc1ccc(N2CCN(C(=O)CCNC(=O)c3ccc(C(C)(C)C)cc3)CC2)cc1 | -27.9%
Cc1ccc(-n2c(=O)c3sccc3n(CC(=O)NCc3ccco3)c2=O)cc1 | 3.57%
CCCCn1c(SCC(=O)NC2CC2)nc2ccccc2c1=O | -4.62%
CCCC(=O)Nc1ccc(C(=O)N/N=C/c2ccc([N+](=O)[O-])o2)cc1 | -20.9%

— article PMC4336329 (PLoS ONE, 2015)
